Source: the supplement of paper PMC7826260
Some of the results follow. One pool of 16,384 single-stranded DNAs met each Rep nickase domain in vitro at 3 µM enzyme and 37 °C for 1 h; the strands have 90 letters, of which the middle is given. Uncut reads are compared with the no-enzyme pool on a log2 scale; more negative means more cut, near 0 not cut, and no call is made. Reads are scaled to the total; values above 0 arise when much of the pool is cut.

Legend:
Assay in all cases: uncleaved DNA left, log2 of reads against the no-enzyme library (log2 ratio); higher = less cleavage (more negative = more Rep cleavage of the k-mer); sequences stand for … in CTCGTCCG…ACCGGAGA
[1] = system: T1, Rep nickase domain of Muscovy duck circovirus
T1 sequence (residues 1-111 of Rep, tag left off): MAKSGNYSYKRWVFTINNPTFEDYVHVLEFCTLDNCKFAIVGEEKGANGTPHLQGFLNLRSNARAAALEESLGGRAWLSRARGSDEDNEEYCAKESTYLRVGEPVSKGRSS
Description: (§1)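 A pool of 90-nt single-stranded DNAs with seven random bases just before the constant AC of the nick site (name = the seven bases) was cut by 3 µM recombinant His6-SUMO-tagged Rep nickase domain (300 nM DNA, 50 mM HEPES pH 8.0, 50 mM NaCl, 1 mM MnCl2, 1 h, 37 °C, three replicates). Uncut DNA was amplified and sequenced.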

[2] = system: T2, Rep nickase domain of banana bunchy top virus
T2 sequence (residues 1-94 of Rep, tag left off): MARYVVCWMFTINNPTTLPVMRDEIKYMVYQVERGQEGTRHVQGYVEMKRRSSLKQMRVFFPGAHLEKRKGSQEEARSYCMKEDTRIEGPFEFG
Description: as §1

[3] = system: T3, Rep nickase domain of cabbage leaf curl virus
T3 sequence (residues 1-116 of Rep, tag left off): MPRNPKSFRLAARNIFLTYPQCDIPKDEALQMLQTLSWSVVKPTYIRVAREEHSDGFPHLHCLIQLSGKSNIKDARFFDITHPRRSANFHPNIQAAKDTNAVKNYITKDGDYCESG
Description: as §1

[4] = system: T4, Rep nickase domain of chickpea chlorotic dwarf virus
T4 sequence (residues 1-124 of Rep, tag left off): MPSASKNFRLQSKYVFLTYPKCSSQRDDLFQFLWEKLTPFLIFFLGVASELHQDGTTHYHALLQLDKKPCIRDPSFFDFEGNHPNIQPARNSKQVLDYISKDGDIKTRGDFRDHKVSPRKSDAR
Description: as §1

[5] = system: T5, Rep nickase domain of faba bean necrotic yellows virus
T5 sequence (residues 1-98 of Rep, tag left off): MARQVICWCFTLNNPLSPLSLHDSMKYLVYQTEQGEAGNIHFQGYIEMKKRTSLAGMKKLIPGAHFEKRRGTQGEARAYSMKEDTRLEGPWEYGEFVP
Description: as §1

[6] = system: T6, Rep nickase domain of maize striate mosaic virus
T6 sequence (residues 1-117 of Rep, tag left off): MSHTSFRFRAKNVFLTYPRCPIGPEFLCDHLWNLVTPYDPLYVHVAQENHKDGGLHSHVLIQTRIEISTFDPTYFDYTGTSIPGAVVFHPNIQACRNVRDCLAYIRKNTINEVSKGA
Description: as §1

[7] = system: T7, Rep nickase domain of porcine circovirus 2
T7 sequence (residues 2-116 of Rep, tag left off): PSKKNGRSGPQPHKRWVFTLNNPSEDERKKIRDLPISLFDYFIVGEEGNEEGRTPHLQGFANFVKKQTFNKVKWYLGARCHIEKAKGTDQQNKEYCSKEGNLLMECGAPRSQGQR
Description: as §1

[8] = system: T8, Rep nickase domain of tomato golden mosaic virus
T8 sequence (residues 1-124 of Rep, tag left off): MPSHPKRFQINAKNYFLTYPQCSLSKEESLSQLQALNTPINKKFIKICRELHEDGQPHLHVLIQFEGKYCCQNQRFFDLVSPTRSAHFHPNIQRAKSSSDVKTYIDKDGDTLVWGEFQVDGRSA
Description: as §1

[9] = system: T9, Rep nickase domain of tomato yellow leaf curl virus
T9 sequence (residues 1-136 of Rep, tag left off): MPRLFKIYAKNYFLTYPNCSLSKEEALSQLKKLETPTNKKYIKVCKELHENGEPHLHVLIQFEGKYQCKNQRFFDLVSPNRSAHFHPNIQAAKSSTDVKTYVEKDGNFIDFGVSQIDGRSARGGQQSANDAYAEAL
Description: as §1

[10] = system: T10, Rep nickase domain of wheat dwarf virus
T10 sequence (residues 1-137 of Rep, tag left off): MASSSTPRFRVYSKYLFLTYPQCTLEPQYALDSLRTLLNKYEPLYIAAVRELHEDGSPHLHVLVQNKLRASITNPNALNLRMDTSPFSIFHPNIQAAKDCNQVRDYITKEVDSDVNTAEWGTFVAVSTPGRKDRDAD
Description: as §1

Sequence	uncleaved DNA left (log2) [1]	uncleaved DNA left (log2) [2]	uncleaved DNA left (log2) [3]	uncleaved DNA left (log2) [4]	uncleaved DNA left (log2) [5]	uncleaved DNA left (log2) [6]	uncleaved DNA left (log2) [7]	uncleaved DNA left (log2) [8]	uncleaved DNA left (log2) [9]	uncleaved DNA left (log2) [10]
ACAAGTT	0.0678	3.74e-05	-0.603	-2.36	-0.0623	-0.806	0.0323	-0.0272	0.0285	-0.071
ATTCCCG	-1.65	-0.049	-0.953	-0.158	-0.109	-1.11	-2.8	-0.0471	0.0303	-0.135
ATTGATT	-1.07	-0.898	-0.136	-1.94	0.0516	-0.164	-2.6	-0.013	-0.0478	-0.107
GAAGCCC	0.02	0.0238	0.263	0.326	0.0635	0.288	-0.00227	0.0105	0.0524	0.0886
CCTCAAC	-0.0757	-0.18	-0.183	-1.56	0.0248	-0.751	-0.00775	-0.00217	-0.0174	-0.152
ACTAGCA	-0.073	0.0528	-0.799	-0.998	0.0118	-1.18	-0.00312	-0.00517	0.0803	-0.0636
TGCATGT	0.0266	-0.0523	-0.18	-0.374	-0.139	-0.703	-0.0515	-0.0853	0.0124	-0.0642
AGCGGAG	0.00553	0.217	0.0679	0.458	0.105	0.417	0.199	0.278	0.0767	0.0606
TTTCCGT	0.0457	0.00351	-0.147	-0.762	-0.00364	-0.829	-0.136	-0.0866	0.00576	0.0162
CTTACGT	0.113	0.108	0.165	-0.841	-0.0217	-0.302	-0.0833	-0.0145	0.0272	0.00548
CTAAATC	0.242	0.264	0.268	-0.166	0.243	-0.577	0.212	0.115	0.217	0.28
CACGTAT	0.192	0.153	0.0267	-1.17	0.026	-0.237	-0.0208	0.198	0.108	0.0848
AGTAGGC	-0.0887	-0.187	0.0738	0.201	-0.0657	-0.673	0.0389	-0.00902	-0.12	-0.115
GATATCG	0.0875	-0.0106	-0.779	-0.395	-0.000604	-0.885	0.0734	-0.0317	-0.0709	-0.143
GTTAACG	0.0951	0.0232	-0.44	-0.523	0.0359	-0.734	0.162	0.0952	-0.00696	-0.0206
TCCGCTA	-0.158	-0.173	-0.0663	-0.501	-0.12	-0.442	-0.0567	-0.227	-0.275	-0.194
CAAAGAG	0.216	0.303	-0.478	-0.619	0.183	-0.941	0.366	0.161	0.252	0.124
CACGGCA	-0.0506	0.081	-0.34	-0.662	0.0397	-0.958	-0.311	0.0173	0.0782	-0.1
AGTTCGG	0.125	0.0389	0.419	1.31	-0.016	1.65	0.0975	0.104	-0.0815	0.141
ACCCGCA	-0.03	-0.104	-0.452	-0.663	0.0479	-0.858	0.0741	0.0476	0.0284	-0.0514

Sequence	uncleaved DNA left (log2) [1]	uncleaved DNA left (log2) [2]	uncleaved DNA left (log2) [3]	uncleaved DNA left (log2) [4]	uncleaved DNA left (log2) [5]	uncleaved DNA left (log2) [6]	uncleaved DNA left (log2) [7]	uncleaved DNA left (log2) [8]	uncleaved DNA left (log2) [9]	uncleaved DNA left (log2) [10]
AACTTTA	-0.255	-0.0308	-0.267	-2.49	-0.0481	-0.782	-2.94	-0.0586	0.00974	0.0546
CCAAAGT	-0.0544	-0.0252	-0.11	-0.574	-0.0368	-0.993	-0.0157	0.0597	0.00454	-0.0202
TCGAAAC	0.022	-0.0792	0.0977	-0.482	0.0892	-0.534	0.0399	-0.00944	0.0824	-0.0432
ATAGAGC	0.0446	0.125	-0.247	-0.311	0.135	-1.19	0.136	0.0594	0.0183	0.0296
TCCTCTG	0.0198	-0.187	-0.172	-0.196	-0.0529	-0.275	-0.104	-0.179	-0.0331	-0.0582
GGAAAGC	0.0155	0.0407	0.791	1.79	-0.00327	1.98	0.225	0.0456	-0.0216	0.124
TTATTCC	-0.027	-0.129	0.115	-0.293	-0.0732	-0.489	-0.0805	-0.224	-0.0162	-0.0532
TATAGTG	0.0406	-0.0502	-0.569	-0.728	0.0182	-1.18	0.178	-0.0173	0.119	-0.141
GTATCAT	-0.0627	0.159	0.399	1	0.0334	1.88	0.071	-0.00141	0.0821	0.228
CAGGCGT	0.187	-0.0352	-0.793	-0.569	0.0753	-0.71	0.095	-0.11	0.126	-0.0837
CGTCGCG	0.0214	-0.0223	-0.611	0.0872	0.148	-0.652	0.171	-0.0693	0.0523	-0.0358
CCCCCCC	-0.191	0.0378	0.116	-0.0934	0.00775	-0.183	-0.174	-0.0497	-0.12	-0.0485
GTAAGTG	0.0375	0.0349	-0.452	-0.61	0.0634	-0.711	0.179	0.0516	0.0421	-0.0174
ATAACGC	-0.0788	-0.141	-0.642	-0.8	-0.0416	-1.09	0.0654	-0.104	-0.106	-0.174
TTCGGGC	0.0514	-0.0127	0.276	0.211	-0.0346	0.0685	0.103	-0.0857	-0.0185	-0.0243
TTTCTGA	0.162	0.102	0.249	0.23	0.0454	0.148	0.0743	0.01	0.0516	0.0853
TAGGGTC	0.0648	0.0392	0.431	0.753	0.0177	1.48	0.0857	0.0739	0.0889	0.047
GAAAAAT	-0.0486	0.0194	-0.217	-1.52	0.0959	1.05	-0.144	-0.0895	0.0215	0.00906
TTTTTAA	0.105	0.0724	0.324	0.267	-0.0759	0.91	0.0264	0.138	0.0571	0.0382
GGGGCCT	0.0183	0.0802	0.91	1.9	-0.0811	2.3	0.223	0.155	0.00632	0.209

Sequence	uncleaved DNA left (log2) [1]	uncleaved DNA left (log2) [2]	uncleaved DNA left (log2) [3]	uncleaved DNA left (log2) [4]	uncleaved DNA left (log2) [5]	uncleaved DNA left (log2) [6]	uncleaved DNA left (log2) [7]	uncleaved DNA left (log2) [8]	uncleaved DNA left (log2) [9]	uncleaved DNA left (log2) [10]
TACCCAC	-0.168	-0.258	-0.132	-1.46	-0.14	-0.743	-1.26	-0.138	-0.057	-0.0602
GTTCGTC	-0.0315	0.00885	0.354	0.773	-0.0168	1.25	0.0726	0.00394	0.0153	0.0658
GGCCCGA	0.0054	0.0988	0.568	1.27	-0.169	1.61	0.0618	-0.0187	-0.0108	0.018
AGATTGA	0.0341	0.0312	-0.146	0.303	-0.0407	-0.0836	-0.0145	0.0501	0.0396	0.0245
TCGAAAT	0.179	0.191	0.353	0.0746	0.0219	-0.0302	-0.2	0.267	0.247	0.272
CGTTATT	-2.74	-2.71	-0.336	-2.1	-0.46	-0.117	-3.55	-0.158	0.103	-0.79
TCCAGCA	0.028	0.05	-0.195	-0.824	-0.0108	-0.953	-0.187	-0.067	0.0427	-0.0621
ACACCGA	-0.0606	-0.166	-0.331	-0.14	0.0472	-0.883	0.116	-0.0797	-0.204	-0.0388
AAAGTTG	0.0769	0.0516	0.252	1.26	0.0603	1.23	0.227	0.039	-0.0683	0.0609
ATCACCC	-0.0716	0.0272	-0.0958	0.0286	-0.0319	-0.0956	-0.19	-0.0242	-0.122	-0.106
CAAACGA	0.0103	-0.0367	-0.44	-0.671	0.0301	-0.941	0.115	0.00412	-0.0747	-0.0568
GAGGTTC	0.0821	0.0577	0.22	0.421	-0.0433	1.49	-0.00392	0.0724	0.0677	0.0748
GGGGGCC	0.0121	0.0591	0.744	1.6	0.0152	2.02	0.229	0.0497	0.0405	0.0783
GAGCGAC	0.0371	0.0128	0.111	0.751	-0.0725	1.35	0.0836	0.0447	-0.00538	0.0143
TCAATGC	-0.0352	0.00963	-0.728	-0.533	-0.0185	-1.34	0.132	0.031	0.0168	-0.198
GAGTCTT	-1.51	-2.65	0.234	-0.889	-2.45	1.34	-3.6	-0.168	0.143	0.0237
GCTAAGT	0.0229	-0.0587	0.0434	0.183	0.0519	-0.315	-0.0357	-0.0105	0.119	-0.0659
AACAATA	-0.017	0.0355	-0.272	-2.74	0.0208	-0.88	-0.08	0.102	-0.0265	0.0752
TGGTGGG	-0.0608	-0.0893	-0.351	-0.478	-0.00798	-0.736	0.0785	-0.105	0.0274	-0.121
GATCTCT	0.0745	0.00354	0.0271	-1.34	0.0268	0.903	-0.263	0.0298	0.0708	0.123
